# Source: the supplement of paper PMC4967469
# By IC50 is meant the dose at which the fit gives 50% viability; a limit (>, <) means that the fit lies beyond the doses tested. AUC sums up the same curve from the lowest dose to the 256-fold higher top dose; it is 1 without any effect and falls as sensitivity rises. Drugs with an entry number were screened twice under separate entries, and the two screens often disagree.
# Compound: CS(=O)(=O)N1CCN(Cc2cc3nc(-c4cccc5[nH]ncc45)nc(N4CCOCC4)c3s2)CC1 [GDC0941]
# Assay: Viability of human cancer cell lines after 72 h of drug (GDSC screen)
# Settings: screen: GDSC drug entry 1058
# Procedure: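 Human cancer cell lines in 384-well plates, medium with 10% serum, drug for 72 h over a 256-fold dose range (nine 2-fold or five 4-fold steps up to the top dose). Adherent lines were fixed and stained with the nucleic acid dye Syto60, suspension lines read with resazurin; signal relative to control wells, capped at 0 and 100%. One two-parameter sigmoid per drug and line, fitted in a mixed model over all curves with the slope shared within a line.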
Cell Line,AUC,IC50 [nM]
"SKG-IIIa (cervix, adherent, top dose 4 µM)",0.78,2260
"SKM-1 (haematopoietic neoplasm, suspension, top dose 4 µM)",0.445,174
"SKN (uterus, adherent, top dose 4 µM)",0.658,755
"SKN-3 (head and neck, adherent, top dose 4 µM)",0.798,2310
"SLVL (B-cell lymphoma, suspension, top dose 4 µM)",0.875,> 4000
"SNB75 (glioma, adherent, top dose 4 µM)",0.768,2240
"SNG-M (endometrium, adherent, top dose 4 µM)",0.843,2740
"SNU-61 (large intestine, adherent, top dose 4 µM)",0.937,> 4000
"SNU-81 (large intestine, adherent, top dose 4 µM)",0.679,943
"SNU-182 (liver, adherent, top dose 4 µM)",0.789,1860
"SNU-387 (liver, adherent, top dose 4 µM)",0.682,874
"SNU-407 (large intestine, adherent, top dose 4 µM)",0.743,1420
"SNU-423 (liver, adherent, top dose 4 µM)",0.801,2360
"SNU-449 (liver, adherent, top dose 4 µM)",0.819,2540
"SNU-C1 (large intestine, suspension, top dose 4 µM)",0.626,653
"SNU-C2B (large intestine, adherent, top dose 4 µM)",0.887,> 4000
"SNU-C5 (large intestine, adherent, top dose 4 µM)",0.859,3860
"SR (lymphoid neoplasm, suspension, top dose 4 µM)",0.683,763
"ST486 (Burkitt lymphoma, suspension, top dose 4 µM)",0.969,> 4000
"STS-0421 (soft tissue, adherent, top dose 4 µM)",0.645,676
"SU-DHL-4 (B-cell lymphoma, suspension, top dose 4 µM)",0.987,> 4000

Cell Line,AUC,IC50 [nM]
"SU-DHL-5 (B-cell lymphoma, suspension, top dose 4 µM)",0.357,112
"SU-DHL-6 (B-cell lymphoma, suspension, top dose 4 µM)",0.15,32.6
"SU-DHL-8 (B-cell lymphoma, suspension, top dose 4 µM)",0.968,> 4000
"SU-DHL-10 (B-cell lymphoma, suspension, top dose 4 µM)",0.583,397
"SU-DHL-16 (B-cell lymphoma, suspension, top dose 4 µM)",0.567,363
"SUIT-2 (pancreas, adherent, top dose 2 µM)",0.891,> 2000
"SUP-B8 (B-cell leukaemia, suspension, top dose 4 µM)",0.755,1350
"SUP-B15 (lymphoblastic leukaemia, suspension, top dose 4 µM)",0.716,990
"SUP-HD1 (Hodgkin lymphoma, suspension, top dose 4 µM)",0.788,1660
"SUP-M2 (anaplastic large cell lymphoma, suspension, top dose 4 µM)",0.99,> 4000
"SUP-T1 (T-cell lymphoblastic leukaemia, suspension, top dose 4 µM)",0.753,1230
"SW13 (adrenal gland, adherent, top dose 2 µM)",0.953,> 2000
"SW620 (large intestine, adherent, top dose 4 µM)",0.988,> 4000
"SW626 (ovary, adherent, top dose 4 µM)",0.884,> 4000
"SW684 (fibrosarcoma, adherent, top dose 4 µM)",0.82,3860
"SW756 (cervix, adherent, top dose 4 µM)",0.879,> 4000
"SW780 (bladder, adherent, top dose 4 µM)",0.858,3780
"SW900 (lung squamous cell carcinoma, adherent, top dose 2 µM)",0.962,> 2000
"SW948 (large intestine, adherent, top dose 4 µM)",0.981,> 4000
"SW954 (urogenital system, adherent, top dose 4 µM)",0.868,3710
"SW962 (urogenital system, adherent, top dose 4 µM)",0.738,1440
